Assay results reported in PubChem BioAssay AID1919001 (Molecular Pharmacology Branch, DTP, NCI, 2023).
Not every entry of the source has a single result; some have several. The other results are left out here. An entry can have further records. Values that stand side by side are repeated measurements (runs, samples, wells, individuals or studies). Counts like (3×) give the number of equal values in this list.

System: 699152-130-R-J1-PDC complex spheroid growth
Assay: Anticancer human tumor 699152-130-R-J1-PDC patient-derived pancreatic carcinoma cell line growth inhibition [AhR]
Details: for IC50: compound alone; for viability, T/C: stronger effect = lower value
Excerpt: Multicellular complex tumor spheroid response to aryl hydrocarbon receptor antagonists in combination with a variety of drugs and investigational agents in selected tumor cell lines
The current study was undertaken to assess response to aryl hydrocarbon receptor antagonists in combination with standard-of-care drugs and investigational agents in solid tumor complex spheroid models. Complex spheroids include a stromal component modeled by human endothelial cells (HUVEC) and fibroblasts modeled by human mesenchymal stem cells (MSCs). The concentration ranges selected for each drug and investigational agent were based upon clinically achievable concentrations if the clinical Cmax of the agent was known.
Compounds. The drugs and investigational agents: BAY 2416964 (NSC825713), GNF351 (NSC835774), CH-223191 (NSC835775), CPI-455 (NSC825282), aza-TdCyd (NSC777586), decitabine (NSC127716), belinostat (NSC758774), entinostat (NSC756642), pevonedistat (NSC761192), tazemetostat (NSC777109), talazoparib (NSC765396), olaparib (NSC753686), selinexor (NSC780203), nedisertib (M3814, NSC802822), bortezomib (NSC756655), venetoclax (NSC766270), doxorubicin (NSC123127), elimusertib (BAY189344, NSC800525), ceralasertib (AZD6738, NSC777638), TAK-243 (NSC785004), alisertib (NSC759677), etoposide (NSC141540), topotecan (NSC609699), eribulin (NSC707389), gemcitabine (NSC613327), carboplatin (NSC241240), cisplatin (NSC119875), and SN-38 (NSC673596) were obtained from the National Cancer Institute (NCI) Developmental Therapeutics Program Chemical Repository (32). The FDA-approved anticancer drug set is available from the Developmental Therapeutics Program at https://dtp.cancer.gov/organization/dscb/obtaining/available plates.htm. […] The stock solutions were prepared in dimethyl sulfoxide (DMSO, Sigma-Aldrich, St. Louis, MO, cat. D2650), except for the platinum compounds which were prepared in saline (Quality Biological, Gaithersburg, MD, cat. 114-055-101), at 800-fold the tested concentration and stored at -70 degrees C prior to their use. All drugs and investigational agents were tested over a range starting from a high concentration at or near the clinical Cmax and decreasing in half-log increments. If the clinical Cmax for an agent had not been determined, the highest concentration tested was 10 microM (Table 1).
Cell Culture. All cells were maintained in an incubator at 37 degrees C and 5% CO2 with 95% humidity. The PDC lines were cultured according to standard operating procedures established by the NCI PDMR (https://pdmr.cancer.gov). Briefly, all PDCs were thawed and cultured in Matrigel-coated flasks prepared with a working solution of 1X Ham's F-12 nutrient mix, without supplementation (Invitrogen, Waltham, MA, cat. 11765054), 100 U/mL penicillin-streptomycin (Invitrogen, cat. 15140122), and 2.5% Matrigel (Corning Inc., Corning, NY, cat. 354248) for the first three passages. All PDCs were cultured in complete DMEM/F-12 media containing advanced DMEM/F-12 (Invitrogen, cat. 12634028), 4.9% defined fetal bovine serum, heat inactivated (HyClone Laboratories Inc., Logan, UT, cat. SH30070.03HI), 389 ng/mL hydrocortisone (Sigma-Aldrich, cat. H4001), 9.7 ng/mL human EGF recombinant protein (Invitrogen, cat. PHG0313), 23.4 microg/mL adenine (Sigma-Aldrich, cat. A2786), 97.3 U/mL penicillin-streptomycin (Invitrogen, cat. 15140122), 1.9 mM L-glutamine (Invitrogen, cat. 25030081), and 9.7 microM Y-27632 dihydrochloride (Tocris Bioscience, Bristol, United Kingdom, cat. 1254). The PDCs were cultured in complete DMEM/F12 media without 10 microM Y-27632 dihydrochloride for at least two passages prior to the screen. The established cell lines NCI-H1341 and […] were cultured in DMEM/F-12, HEPES (Invitrogen, cat. 11330032), 5% defined fetal bovine serum (HyClone Laboratories Inc., cat. SH30070.03), ITS premix universal culture supplement [insulin (5 microg/mL), transferrin (5 microg/mL), and selenious acid (5 ng/mL)] […]
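Further: compound exposure lasted 7 days after spheroids had grown for 3 days.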

Row | IC50 | SMILES | IC50 (combination with AhR antagonists, run of 07/18/2022) | viability, T/C (compound alone 0.316 µM) | viability, T/C (compound alone 1 µM) | viability, T/C (compound alone 3.16 µM) | viability, T/C (compound alone 10 µM) | viability, T/C (compound alone 0.1 µM)
1 | > 10 µM, 629 nM, 300 nM | Nc1ccn(C2OC(CO)C(O)C2(F)F)c(=O)n1 (stereo not given) |  |  |  |  |  | 
2 |  | Cc1cncc(-c2nc(NCCc3c[nH]c4ccccc34)c3ncn(C(C)C)c3n2)c1 | 6.11 µM, 5.12 µM, 5.55 µM, 5.75 µM, > 10 µM, 6.18 µM, 5.79 µM, 5.4 µM, 5.63 µM, 5.66 µM, 6.85 µM, 6.67 µM, 6.72 µM, 7.39 µM, 6.63 µM, 6.76 µM, 6.42 µM, 6.48 µM, 7.2 µM, 4.53 µM, 4 µM, 3.7 µM, 4.64 µM, 3.82 µM | 106, 85.5, 108 (2×), 115, 105, 107, 98.2, 104 (3×), 91.2, 81.8, 98.3 (2×), 100, 118, 98.7, 95, 99.7% | 109 (3×), 90.8, 117, 100 (2×), 120, 105 (2×), 96.3, 102, 118, 99.8, 121, 128, 110, 115, 97.7, 106% | 104, 85.3, 96.1, 93.9, 124, 103 (2×), 95.1, 85, 92, 91.9, 107, 102, 96.4, 115, 109, 95.8, 95.2, 105, 112% | 10.1, 0.86, 1.8, 9.35, 63.1, 11.7, 9.23, 9.67, 8.1, 8.91, 27.7, 23, 25.3, 26.7, 17, 22.9, 20.9, 22.4, 19, 27.5% | 
3 |  | CC(CO)NC(=O)c1cc(-c2ccc(Cl)cc2)nn(-c2cnn(C)c2)c1=O (stereo not given) |  | 96.8, 82.8, 105, 96, 108 (2×), 93.9, 99.8, 96.3, 96.7, 82.3, 94 (2×), 90.9, 81.7, 117, 100, 86, 82, 90.3, 95.1% | 92.1, 95.8, 88.5, 97.1, 113, 93.2, 86.1, 83.1, 96.3, 87.7, 86.5, 102 (2×), 77.5, 93, 103, 97.6, 97.9, 95.3, 84.7, 91.1% | 86.8, 69.9, 96.3, 89.4, 90.9, 96.1, 94, 83.4, 71.4, 83.5, 95.9, 71.5, 90.5, 87.5, 78.7, 96.9, 80, 89.2% | 87.7, 86, 83.5, 101, 79.5 (2×), 90.3, 76.8, 99.4, 70.4, 77, 89.6, 87.8, 104, 89.3, 93.5, 79.2, 73, 91% | 
4 |  | Cc1ccccc1N=Nc1ccc(NC(=O)c2ccnn2C)c(C)c1 |  | 88.2, 96.5, 111, 105, 99.8, 92.3, 85.3, 91.8 (2×), 95.1, 90.3, 86.6, 78.1, 103, 96.2, 101 (2×), 104, 85.7, 92% | 104, 91.2, 102 (2×), 87.3, 108, 107, 81, 90.4, 89.5, 101 (2×), 96.5, 88.2, 76.4, 97.4, 96.3, 90.5, 90.8, 98.5% | 100 (3×), 95.7, 109, 94.2, 118, 99.1, 93.8, 91.3, 105, 101, 107 (2×), 82.8, 98.3, 114, 93.2, 106, 85.8% | 118 (2×), 106 (2×), 107 (5×), 125, 102 (2×), 114 (2×), 105, 116, 87.2, 108, 101, 97.2% | 95.5, 82.6, 101, 106 (2×), 86.6, 83.1, 91.3, 87, 95.3, 82, 87.3, 77.7, 87.1, 93.2, 99.5, 98.1, 92.9, 86.1, 97.7%
